Where “and” joins values, the source holds several entries; their conditions need not be identical. Identical values can stand only once. Screen size: about 150,000 compounds; about 540 (0.36%) showed an effect of 50% or more. The list shows a part of the results.
Test system: Plasmodium falciparum
Assay: Primary screen in NF54 nanoGlo assay, in single point, at 2uM, 72h; a lower Z score goes with more inhibition
Format: functional, Erythrocyte
Details: timepoint 72 hour

SMILES | % Inhibition | Z score | % Inhibition (2 µM)
CC(C)C[C@@H]1NC(=O)[C@H](CCCNC(N)=O)NC1=O | 2% | -0.38 | 
COCc1nn2c(c1-c1ccccc1)NC(=O)C[C@H]2C(=O)Nc1cccc(OC)c1 | -18% | 2.34 | 
COC(=O)N1CCC(NC(=O)[C@@H](C)Cc2ccc(C)cc2)CC1 | -14% | 1.16 | 
COc1cnccc1C(C)NC(=O)NCC(O)c1cc(C)cc(C)c1 (centres undefined) | -2% | 0.26 | 
CCS(=O)(=O)N(C)C1CCN([C@@H](C)C(=O)NC(C)(C)C)CC1 | -8% | 1.56 | 
O=C1CN(c2nc(-c3ccccc3)nc3c2CCNC3)CCN1 | -14% | 2.47 | 
OC[C@H]1CN(c2nc(-c3ccccc3)cs2)C[C@H]1CN1CCC(O)CC1 | -13% | 2.28 | 
CCN(CC)C(=O)CCNC(=O)[C@H](C)NC(=O)CC1CCCCC1 | -2% | 0.49 | 
O=C(c1cc(F)cc(F)c1)N1CCN(c2nnc3ccc(Cl)cn23)CC1 | 35% | -3.99 | 
Clc1ccc2c(c1)/C(c1ccccc1Cl)=N\c1ccc(Cl)cc1/C(c1ccccc1Cl)=N\2 | -25% | 4.34 | 
Cc1ccsc1C(=O)N1CC2CC1CS2(=O)=O (centres undefined) | -14% | 1.62 | 
O=C(CN1CCCCC1=O)Nc1cccnc1C1CC1 | 8% | -0.91 | 
Cc1nc([C@H](C)NC(=O)N(Cc2ccoc2)C2CC2)no1 | -11% | 1.46 | 
C[C@@H]1N(C(=O)c2c[nH]nn2)CCOC1(C)C | -5% | 0.95 | 
O=C(Nc1cc(Cl)ccc1Oc1ccc2ccccc2c1Br)c1cc(Cl)cc(Cl)c1O | -17% | 2.35 | 
O=C(NS(=O)(=O)[C@@H]1CC=CCC1)C1CCC(F)(F)CC1 | 3% | -0.51 | 
NC(=O)NC(=O)CCN1CCS(=O)(=O)c2ccccc2C1 | -12% | 1.08 | 
O=C1CCCN1CCC(=O)N1CCC[C@H](OCc2ccccc2)C1 | -14% | 2.73 | 
O=C(N[C@H]1CCN(CCC(F)(F)F)C[C@@H]1O)c1ccccn1 | -14% | 1.29 | 
CCNC(=O)c1ccc(NC[C@@]2(C)CCCO2)nc1 | -10% | 1.25 | 
C=CCCC(=O)N1CCCC[C@H](c2ccccc2)C1 | -9% | 1.32 | 
CC(=O)N1CC2=Nc3cccc4c3c(cn4CCC(C)C)[C@H](c3cccc4cccnc34)C2=C1O | -10% | 1.35 | 

SMILES | % Inhibition | Z score | % Inhibition (2 µM)
CCCCC(C(=O)NC(C)c1ccccc1)C(=O)NC(C)c1ccccc1 (centres undefined) | -1% | 0.22 | 
Cn1ccc(-c2noc(COc3nsnc3N3CCOCC3)n2)n1 | -6% | 1.21 | 
COc1ccc(-c2nc3cnccn3c2Nc2ccc3c(c2)OCO3)cc1OC | 1% | -0.1 | 
COCc1nc(C)cc(N2CC[C@H](N(C)c3cccc(C#N)c3)C2)n1 | 0% | 0.04 | 
CC(C)(C)Oc1ccc(CNC(=O)[C@H]2CCc3cncn3C2)cn1 | -6% | 0.91 | 
CCc1nc(NC(=O)CNC(=O)c2ccsc2)sc1C | 10% | -1.2 | 
COC(=O)c1cc(NC(=O)C2CC(C)(C)C2)n(C)n1 | 1% | -0.13 | 
Cn1c(=O)[nH]cc(C(=O)N2CCOC[C@H]2c2nc(-c3ccccc3)no2)c1=O | -2% | 0.2 | 
C=CCn1c([C@H](C)OC(C)C)n[nH]c1=O | -4% | 0.49 | 
CNC(=O)[C@@H]1CCCCN1S(=O)(=O)c1cccc(-n2cnnn2)c1 | -7% | 0.79 | 
Cc1noc(C)c1CCCNC[C@H](C)c1ccccc1 | -5% | 0.46 | 
Cc1noc([C@@H]2CNCCCN2C(=O)c2ccccc2)n1 | -7% | 1.26 | 
Cn1cc(CN(CCO)Cc2cnc3c(-c4ccccc4)cnn3c2)cn1 | -5% | 1.07 | 
CCOc1c(CNC[C@]2(O)CCCN3CCCC[C@@H]32)cccc1OC | -9% | 1.41 | 
CCS(=O)(=O)NCC(=O)N1CC(c2ccsc2)CC1C (centres undefined) | -7% | 0.95 | 
O[C@H]1[C@H](NCc2c[nH]c3ccccc23)[C@H]2CO[C@H](O2)[C@@H]1N1CCC(Cc2ccccc2)CC1 | -11% | 1.72 | 
Cc1noc(C)c1CN(C)c1ccc(C(=O)N2CCC(C)CC2)cn1 | -18% | 2.6 | 
Cc1ncnc(OCC2CCN(C[C@H](O)C(F)(F)F)CC2)c1C | 1% | -0.09 | 
Cc1cnc(CN(C)Cc2cccc(Cl)c2)cn1 | -2% | 0.3 | 
COc1ccc(CC(=O)NCc2cccnc2-n2ccnc2)nc1 | 4% | -0.69 | 
CN(c1ncnc2c1[nH]c1ccc(F)cc12)C1CCCCC1 | 0% | -0.02 | 
O=C(NCCc1ccc(C(F)(F)F)cn1)OCCCF | -5% | 0.92 | 

SMILES | % Inhibition | Z score | % Inhibition (2 µM)
C=CCN(C)c1nnc(C2CCCCO2)n1CC(OC)C1CC1 (centres undefined) | -12% | 1.54 | 
CO[C@@H](C)c1nc(COc2c(C)c(C)nc3ccc(F)cc23)cs1 | 5% | -0.58 | 
Cc1nn(C)c(C)c1CC(=O)Nc1nc(-c2cccs2)nn1C | -13% | 2.05 | 
Cc1ccc(C)c(NC(=O)N(C)Cc2nc([C@H]3CC34CCN(C)CC4)no2)c1 | -11% | 1.51 | 
O=C(Cc1ccsc1)NC1CCN(c2ccc(-c3cccc(F)c3)nn2)CC1 | -14% | 1.63 | 
O=C(Cc1ccc(OC(F)F)cc1)NC1CCN(C2CCC2)CC1 | 3% | -0.5 | 
CCCc1noc([C@H]2CCC(=O)N(Cc3ccc(Cl)cc3)C2)n1 | -7% | 0.84 | 
CC1OCCN(C(=O)Nc2ccccc2OCC2CC2)C1C (centres undefined) | -11% | 1.42 | 
COc1ccc(CN2C(=O)N[C@@H](CC(=O)Nc3cccc4[nH]ccc34)C2=O)cc1OC | 4% | -0.56 | 
CCn1cc(C(=O)Nc2cc(Cl)ccc2NC2CC2)cn1 | -11% | 1.65 | 
CCNC(=O)[C@H](C)NC(=O)Nc1ccc(F)cc1 | 0% | -0.06 | 
O[C@@H](Cn1cnc2c(N3CCOCC3)ncnc21)c1ccccc1Cl | 7% | -0.78 | 
COc1cc([C@H]2CC(=O)Nc3c(-c4ccc(Cl)cc4)nsc32)ccc1O | -14% | 1.72 | 
Cc1cccc2c(=O)n(CC(=O)Nc3cccc(C(=O)NC4CC4)c3)cnc12 | -2% | 0.17 | 
CN1C(=O)CN(Cc2cncn2C2CCCCC2)C(=O)c2ccccc21 | 3% | -0.4 | 
CC(C)Oc1ccccc1CN1CC(F)(F)C[C@H]1COc1ccncc1 | 2% | -0.31 | 
O=C(N[C@H]1C[C@@H]2C[C@H]1CN2S(=O)(=O)c1ccc(C(F)(F)F)cc1)c1cccnc1 | 2% | -0.37 | 
COCc1nc(CNc2nc(N(C)C)nc3c2CCCC3)no1 | -6% | 0.73 | 
CCC(O)CN1CCOC(CN2CCN(C(=O)c3c(OC)cccc3OC)CC2)C1 (centres undefined) | 5% | -0.7 | 
COc1ccc(NS(=O)(=O)c2ccc3c(c2)C(C)(C)CN3CC(=O)N2CCCC2)cc1 | -4% | 0.42 | 
c1ccc2c(c1)CCC[C@@H]2n1ccnc1-c1cc2n(n1)CCCNC2 | 3% | -0.46 | 
Cc1cc(C)nc(CN(C)CC(=O)NCCc2ccc(F)cc2)c1 | 0% | 0.06 | 

SMILES | % Inhibition | Z score | % Inhibition (2 µM)
Cc1oc(-c2ccccc2)nc1Cn1nnnc1C | -15% | 1.46 | 
COc1nn(C)cc1C(=O)N1CCC[C@H](Oc2cccnn2)C1 | 41% | -4.67 | 
Cc1ccc(CN2CCN(S(=O)(=O)c3ccc(C4CCCCC4)cc3)c3cccnc32)cc1 | -14% | 1.61 | 
CC(C)Cc1cc(CNC(=O)c2cncnc2)on1 | 10% | -1.27 | 
COc1ccc2c(c1)c(NC(C)=O)c1n2C[C@@](C)(C(=O)NC2CCCC2)N(Cc2ccco2)C1=O | -14% | 1.38 | 
O=C(c1ccccc1)c1cc(-c2ccccc2)on1 | -1% | 0.2 | 
Cc1cc(Cl)ccc1OCC(=O)N1CCC(Cn2cnnc2)CC1 | -14% | 2.21 | 
CCN1CCC[C@@H]1CNCc1cccs1 |  |  | -18% and -1%
NC(=O)C1CCC(CNC(=O)C#Cc2ccccc2)O1 (centres undefined) | 27% | -3.06 | 
CN1CCN(C2(CNC(=O)[C@H](O)c3ccccc3)CCCC2)CC1 | -6% | 1.08 | 
Cc1ccccc1[C@H](CO)N(C)C(=O)c1ccnnc1C | -1% | 0.21 | 
CCc1onc(C)c1Cn1c(=O)c(C(F)(F)F)cn(C(C)C)c1=O | 11% | -1.36 | 
CCCC1CC(C(=O)NS(=O)(=O)CC(F)(F)F)CCO1 (centres undefined) | 4% | -0.58 | 
Fc1ccc(-c2csc(-n3nccc3-c3ccccc3)n2)cc1 | -4% | 0.52 | 
Cc1ccn2c(CN3CCN(C(=O)c4cc(C)nc5c4cnn5C(C)C)CC3)c(C)nc2c1 | 6% | -0.73 | 
Cc1ccc(OS(=O)(=O)c2cccc(C(F)(F)F)c2)c(-c2nc3cc(C)ccc3o2)c1 | 4% | -0.84 | 
CC1(C)C(=O)Nc2cc(C(=O)NC3(c4cccc(Cl)c4)CC3)ccc21 | -4% | 0.55 | 
CC1CCC(C)N1Cc1nc(-c2ccccn2)no1 (centres undefined) | -10% | 1.51 | 
C[C@@H](Cc1cnccn1)n1ccnc1-c1nccn1C | -3% | 0.33 | 
